# Data published in PubChem BioAssay AID1347428 (National Center for Advancing Translational Sciences (NCATS), 2020).
# The campaign covered roughly 91,000 compounds. About 290 (0.32%) were called active. The shares of active, inactive and inconclusive entries below differ from those in the screen. The call rests on the fitted dose curve; in most records, active means well fitted inhibition curve with a large enough effect; inconclusive means small, poorly fitted or top-dose-only effect; inactive means no such curve, though single readings can be large or run the other way. A potency beside an inconclusive call is a rough fit, not a confirmed value.
# Molecular target: Single-stranded DNA cytosine deaminase (Homo sapiens) (UniProt Q9GZX7)
# Chain of UniProt Q9GZX7 (Q9GZX7 whole entry, looked up): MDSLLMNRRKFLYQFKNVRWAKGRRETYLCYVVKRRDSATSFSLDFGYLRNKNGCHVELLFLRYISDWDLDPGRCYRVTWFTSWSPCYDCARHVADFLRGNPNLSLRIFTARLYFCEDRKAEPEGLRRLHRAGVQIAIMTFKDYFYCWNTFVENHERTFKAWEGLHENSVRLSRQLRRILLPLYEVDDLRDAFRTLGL
# Assay: Primary qHTS assay for inhibitors of Activation Induced Cytidine Deaminase (AID): AID signal; further: nearly all actives have a fitted effect of over 25% in size
# Conditions: AID deamination FRET fluorescence, UDG-coupled, 4 h; series mostly up to 115 µM
# Potency means the concentration at half of the fitted maximal effect; tags describe the fitted curve by direction and shape.
row,Compound,Potency
1,CN[C@H](CC(C)C)C(=O)N[C@H]1C(=O)N[C@@H](CC(N)=O)C(=O)N[C@@H]2C(=O)N[C@H]3C(=O)N[C@H](C(=O)N[C@H](C(=O)O)c4cc(O)cc(O)c4-c4cc3ccc4O)[C@H](O)c3ccc(c(Cl)c3)Oc3cc2cc(c3O[C@@H]2O[C@H](CO)[C@@H](O)[C@H](O)[C@@H]2O[C@H]2C[C@](C)(N)[C@H](O)[C@H](C)O2)Oc2ccc(cc2Cl)[C@H]1O,"inconclusive: 79.4 µM [inhibitor, single point]"
2,COc1ccc(OC)c(NC(=O)N2CC3CCCN3c3ccccc32)c1 (stereo not given),active: 20 µM
3,COc1ccccc1NC(=O)C1CCCN(c2ncnc3onc(-c4ccc(F)cc4)c23)C1 (stereo not given),"inconclusive: 70.8 µM [inhibitor, partial curve, poor fit]"
4,Cc1nc2cc(NC(C)C(=O)Nc3c(C)cccc3C)ccc2o1 (stereo not given),inactive
5,Cc1cccc(Nc2nnc(-c3ccc(C)c(S(=O)(=O)N4CCN(C)CC4)c3)c3ccccc23)c1,"inconclusive: 50.1 µM [inhibitor, partial curve, poor fit]"
6,CC(C)c1nnc(Sc2nc(C(F)(F)F)nc3ccccc23)n1C1CC1,inactive
7,CC(=O)NCCNc1nc2c(S(=O)(=O)c3ccc(C)c(C)c3)nnn2c2ccc(Cl)cc12,"inconclusive: 31.6 µM [inhibitor, full curve]"
8,COc1ccc(CNC(=O)CCC(=O)N2CC3CCCN3c3ccccc32)cc1 (stereo not given),"inconclusive: 17.8 µM [inhibitor, full curve, poor fit]"
9,CCCCN(C)C(=O)C1CCCN(c2ncnc3onc(-c4ccc(F)cc4)c23)C1 (stereo not given),"inconclusive: 89.1 µM [inhibitor, single point]"
10,Cc1ccc(NC(=O)Nc2nnc(N3CCCC3)s2)c(C)c1,"inconclusive: 100 µM [inhibitor, single point]"
11,CC(C)Oc1cccc(C2CC(=O)Nc3nc(N)sc32)c1 (stereo not given),active: 28.2 µM
12,Cc1ccc(Cn2c(-c3ccccc3)nc3ccccc32)cc1,"inconclusive: 2.82 µM [inhibitor, full curve, poor fit]"
13,Cc1ccc(-c2nc3nc(CNc4ccc(C)c(Cl)c4)cc(=O)n3[nH]2)cc1,"inconclusive: 79.4 µM [inhibitor, partial curve, poor fit]"
14,CCOc1ccc(NC(=O)c2ccccc2C)c2cccnc12,inactive
15,Cc1nn2c(=O)cc(COC(=O)c3ccc(NC(=O)C4CCCCC4)cc3)nc2s1,active: 44.7 µM
16,Cc1nc(Cc2nn3c(-c4ccccc4)nnc3s2)cs1,inactive
17,CCn1c(SCCOc2ccccc2F)nc2ccccc21,"inconclusive: 50.1 µM [inhibitor, partial curve, poor fit]"
18,Cc1ccc(C(C)C)c(OCC(=O)N2CCC(c3nc4ccccc4o3)CC2)c1,active: 39.8 µM
19,Cc1nc2nc(SCC(=O)NCCc3ccccc3)nn2c(C)c1Cc1c(F)cccc1Cl,"inconclusive: 50.1 µM [inhibitor, partial curve, poor fit]"
20,Cc1c(CC(=O)O)c(=O)oc2cc(OCc3ccc(C(C)(C)C)cc3)ccc12,"inconclusive: 44.7 µM [inhibitor, partial curve, poor fit]"

row,Compound,Potency
1,CCCNC(=S)Nc1cc(C(=O)OC)cc(C(=O)OC)c1,inactive
2,N#Cc1c(-c2ccccc2)cc(-c2cccs2)nc1SCCS(=O)Cc1ccccc1 (stereo not given),inactive
3,Cc1ccccc1OCC(O)CN(Cc1ccccc1)Cc1ccccc1 (stereo not given),inactive
4,COc1ccc(CN(Cc2ccco2)c2cnc(S(C)(=O)=O)nc2C(=O)Nc2ccc(C)c(Cl)c2)cc1,"inconclusive: 20 µM [inhibitor, full curve, poor fit]"
5,CCCc1nc(SC)ncc1C(=O)N1CCN(c2ccc(Cl)cc2)CC1,"inconclusive: 79.4 µM [inhibitor, partial curve, poor fit]"
6,CC(C)(C)C1CCC(OC(=O)c2c(F)cccc2Cl)CC1 (stereo not given),inactive
7,Cc1sc2ncn(CC(=O)N3CCN(c4ccc(F)cc4)CC3)c(=O)c2c1S(=O)(=O)N1CCC(C)CC1,"inconclusive: 79.4 µM [inhibitor, partial curve]"
8,COc1cc2ncn(CCC(=O)N3CCN(c4cccc(Cl)c4)CC3)c(=O)c2cc1OC,inactive
9,CCN1C(=O)c2ccccc2S(=O)c2ccc(C(=O)N3CCN(c4cccc(C)c4)C(C)C3)cc21 (stereo not given),"inconclusive: 70.8 µM [inhibitor, partial curve, poor fit]"
10,Cc1cccc(CNC(=O)CSCc2cnn(-c3ccccc3)c2-n2cccc2)c1,"inconclusive: 50.1 µM [inhibitor, partial curve, poor fit]"
11,Cn1c(SCC(=O)NCC2CN(Cc3ccccc3)CCO2)nnc1-c1ccc(C(C)(C)C)cc1 (stereo not given),inactive
12,COc1ccc(/C=C(\C#N)c2nc(-c3cc4c(ccc5ccccc54)oc3=O)cs2)cc1O,"inconclusive: 56.2 µM [inhibitor, partial curve, poor fit]"
13,COc1ccccc1NC(=O)CN1CCCN(S(=O)(=O)c2ccc(Br)cc2)CC1,"inconclusive: 31.6 µM [inhibitor, single point]"
14,COc1cc(Nc2ncc3c(n2)CCN(Cc2cc(Br)cs2)C3)cc(OC)c1,"inconclusive: 28.2 µM [inhibitor, full curve, poor fit]"
15,CCCCCCCCCCC/C=C\C(C)(C)/C=C\CCCC(=O)O,"inconclusive: 89.1 µM [inhibitor, single point]"
16,CCOc1ccccc1NC(=O)CN1C(=O)CC(c2ccc(OC)c(OC)c2)Sc2ccccc21 (stereo not given),"inconclusive: 35.5 µM [inhibitor, full curve, poor fit]"
17,CCCc1nc2ccccc2c(C(=O)OCC(=O)NC(=O)NC)c1CC,inactive
18,Cc1ccc(CNCCN2CCCC2)cc1,inactive
19,Cc1ccc2c(c1)N(C(=O)C1CCN(S(=O)(=O)c3c(C)noc3/C=C/c3ccccc3F)CC1)CCO2,"inconclusive: 20 µM [inhibitor, single point]"
20,Cc1ccc(NC(=O)CSc2nc3cc4c(cc3c(=O)n2Cc2ccco2)OCO4)c(C)c1,inactive
